Measured values reported in PubChem BioAssay AID651820 (National Center for Advancing Translational Sciences (NCATS), 2012).
Several values for one entry are separate records, joined by “and”; a condition that tells them apart may be missing. Equal entries are not always repeated. Out of some 340,000 compounds screened, about 12,000 (3.5%) were called active. The inconclusive results got no clear call from the source; some entries with a clear call stand among them for comparison. The call rests on the fitted dose curve; in most records, active means well fitted inhibition curve with a large enough effect; inconclusive means small, poorly fitted or top-dose-only effect, or another doubt; inactive means no such curve, though single readings can be large or run the other way. Potencies of inconclusive entries are doubtful fits and often do not repeat. Where a structure was tested more than once in an assay, its records may differ in their call.

Assay: qHTS Assay for Inhibitors of Hepatitis C Virus (HCV)
Settings: Huh7.5.1 HCVcc-Cre (HCVcc is cell-culture hepatitis C virus) infection, luciferase reporter, 44 h; series mostly up to 41.8 µM
Outline: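 Infectious HCVcc-Cre (~0.5 moi) was added to cells just after compound, with cells seeded 4 h earlier at 1,000 per well. Luciferase activity after 44 h culture reported infection; substrate was incubated 15 min at room temperature before reading.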
Potency means the concentration at half of the fitted maximal effect; tags describe the fitted curve by direction and shape.

Row | SMILES | Potency
1 | Cc1ccc2nc(NC(=O)C3CCCN(S(=O)(=O)c4cccnc4)C3)sc2c1 (configuration not stated) | inconclusive: 11.2 µM [inhibitor, partial curve]
2 | O=C(C(Cc1ccccc1)n1cccc1)N1CCc2ccccc21 (configuration not stated) | inconclusive: 11.2 µM [inhibitor, single point]
3 | CCOc1cccc(C(=O)N2CCCN(C)CC2)c1 | inactive
4 | CCOC(=O)C1(Cc2cccc(Cl)c2)CCCN(C(=O)C2CC2)C1 (configuration not stated) | inactive
5 | COc1ccc(NS(=O)(=O)c2ccc(N3CCCC3)c(NC(=S)Nc3cccc(C)c3C)c2)cc1 | inconclusive: 20 µM [inhibitor, single point]
6 | C/C=C/c1ccc(OCC(O)CNCCc2ccc(OC)cc2)c(OC)c1 (configuration not stated) | inconclusive: 22.4 µM [inhibitor, single point]
7 | CSc1ccc(C(=O)C2CCCN(C(=O)c3cc(C)n(C)n3)C2)cc1 (configuration not stated) | inactive
8 | O=C(Cc1ccc(NC(=O)C2CCCN(C(=O)C3CC3)C2)cc1)Nc1cccc(C(=O)N2CCCCC2)c1 (configuration not stated) | inactive
9 | CCOC(=O)C1(CCOc2ccccc2)CCN(Cc2cccn2-c2cccnc2)CC1 | inconclusive: 31.6 µM [inhibitor, single point]
10 | Cc1ccc(S(=O)(=O)N2CCN(C(=O)CCOc3cc(C)ccc3C)CC2)cc1 | inconclusive: 31.6 µM [inhibitor, single point]
11 | Cc1ccc(CS(=O)(=O)Cc2ccc(C(=O)NC3CC3)o2)cc1 | inconclusive: 12.6 µM [inhibitor, partial curve]
12 | Cc1ccc(Cn2ccsc2=NC(=O)COC(=O)c2ccc(NC(=O)CC#N)cc2)cc1 | inconclusive: 5.62 µM [inhibitor, partial curve]
13 | COc1cccc(C(=O)N2CCN(C3CCC(c4ccccc4)CC3)CC2)c1 (configuration not stated) | inconclusive: 12.6 µM [inhibitor, partial curve, poor fit]
14 | C/C(=C1/SC(N2CCCC2)=NC1=O)c1ccc(Br)cc1 | inconclusive: 3.55 µM [inhibitor, partial curve]
15 | Cc1ccc(-c2cn(-c3ccccc3)c(SCC(=O)NC3CCS(=O)(=O)C3)n2)cc1C (configuration not stated) | inactive
16 | CCC(=O)Nc1cc(-c2cc3ccccc3oc2=O)ccc1OC | inconclusive: 10 µM [inhibitor, partial curve]
17 | Cc1ccc(NC(=O)CN2C(=O)NC(Cc3c[nH]c4ccccc34)C2=O)cc1 (configuration not stated) | inactive
18 | COc1cc(OC)c2c(-c3cccc(-c4sccc4C(C)=O)c3)cc(=O)oc2c1 | active: 3.16 µM
19 | O=C1NCCc2c1[nH]c1c(Cl)ccc(Cl)c21 | active: 11.2 µM
20 | CCN1CCN(c2nc3ccccc3nc2C(C#N)C(=O)OC2CCCCC2)CC1 (configuration not stated) | inconclusive: 3.55 µM [inhibitor, single point]
21 | COc1ccc(S(=O)(=O)N2CCN(C(=O)Nc3ccccc3OC)CC2)cc1 | inactive
22 | O=C(CN1CCN(Cc2ccc(Cl)cc2)CC1)N/N=C/c1cccc(F)c1 | inactive
23 | Clc1ccc(C(Cn2ccnc2)OCc2csc3c(Cl)cccc23)c(Cl)c1 (configuration not stated) | active: 12.6 µM

Row | SMILES | Potency
24 | CCc1nc(Nc2ccc(NC(C)=O)cc2)c2oc3ccccc3c2n1 | inconclusive: 10 µM [inhibitor, partial curve]
25 | COc1ccc(Oc2c(Cl)cnn(-c3ccc(F)cc3)c2=O)cc1 | inconclusive: 22.4 µM [inhibitor, single point]
26 | COc1ccc(-c2noc(N3CCC(C(=O)N(C)c4ccccc4)CC3)n2)cc1 | active: 11.2 µM
27 | Cc1nn(Cc2ccccc2)c(Cl)c1/C=N/NC(=O)CNc1cccc(C(F)(F)F)c1 | inconclusive: 14.1 µM [inhibitor, single point]
28 | COc1ccccc1-n1c(=S)[nH]c2c(sc(=S)n2-c2ccc(C)cc2C)c1=O | inconclusive: 12.6 µM [inhibitor, partial curve]
29 | CCn1c2ccc(Cl)cc2c2nc3ccccc3nc21 | inconclusive: 10 µM [inhibitor, partial curve]
30 | CN(CCc1cnn(C)c1)C(=O)C1CCC(=O)N(CC2CCCCC2)C1 (configuration not stated) | inactive
31 | CC(=O)OCC1=C(C(=O)O)N2C(=O)[C@@H](NC(=O)Cc3cccs3)[C@H]2SC1 | active: 0.562 µM
32 | CN(C)c1ccc(NC(=S)NC23CC4CC(CC(C4)C2)C3)cc1 | active: 3.98 µM
33 | C/C=C(/C)C(=O)Nc1cccc(C2=NOC3(C2)C[C@H](C(N)=O)N(C(=O)COc2ccc(Cl)cc2)C3)c1 (some centres not stated) | inconclusive: 2.24 µM [inhibitor, full curve]
34 | COc1ccc(C(CCc2ccc(C)o2)NC(=O)Nc2ccc(OC)cc2OC)cc1 (configuration not stated) | inconclusive: 0.501 µM [inhibitor, partial curve, poor fit]
35 | COc1ccccc1C(CNC(=O)c1cccc(S(=O)(=O)Nc2ccc(F)cc2)c1)N1CCCC1 (configuration not stated) | inconclusive: 31.6 µM [inhibitor, single point]
36 | Cc1cccc(/C=N/NC(=O)c2ccc(NC(=O)c3ccc(Cl)cc3)cc2)n1 | inconclusive: 7.94 µM [inhibitor, partial curve]
37 | NS(=O)(=O)c1ccc(CCNC(=O)CCCCCn2c(=S)[nH]c3ccc(Br)cc3c2=O)cc1 | inconclusive: 3.55 µM [inhibitor, full curve]
38 | O=C(CNC(=O)c1ccc(Br)o1)NCC(=O)OCc1ccccc1 | inactive
39 | Cc1nc(N2CCN(C)CC2)c2c(C)c(C(=O)Nc3ccc(C)c(F)c3)sc2n1 | active: 8.91 µM
40 | CCc1ccc(Nc2n[n+](-c3ccccc3)c(-c3ccc(N(CC)CC)cc3)s2)cc1 | active: 11.2 µM
41 | COc1cccc(N(C(=O)c2ccco2)C(C(=O)NC2CCCC2)c2ccc(N(C)C)cc2)c1 (configuration not stated) | inactive and inconclusive: 5.62 µM [inhibitor, single point]
42 | Cc1ccc(C2CCN(C(=S)Nc3cccc(C)c3)C2)cc1 (configuration not stated) | inconclusive: 31.6 µM [inhibitor, single point]
43 | Cc1nn(CC(O)COc2ccc3c(c2)CCC3)c(C)c1C (configuration not stated) | inconclusive: 3.55 µM [inhibitor, partial curve, poor fit]
44 | Fc1ccc(CNCCc2ccc3c(c2)OCO3)cc1 | inactive
45 | S=c1[nH]nc(-c2cccnc2)n1C1CCCCC1 | inactive
46 | CCN1C(=O)c2cccc3c(S(=O)(=O)Nc4ccccc4)ccc1c23 | inconclusive: 5.01 µM [inhibitor, partial curve]

Row | SMILES | Potency
47 | O=C(Nc1cccc(S(=O)(=O)N2CCOCC2)c1)c1cnn2c(C(F)F)cc(-c3ccccc3)nc12 | inconclusive: 1.41 µM [inhibitor, partial curve]
48 | Cc1cccc(N2CCN(C(=O)CCC(=O)N3CC(C)Oc4ccc(C)cc43)CC2C)c1 (configuration not stated) | inconclusive: 12.6 µM [inhibitor, partial curve]
49 | Cc1cc(-c2ccccc2)nc(-c2ccccc2)c1C | inconclusive: 22.4 µM [inhibitor, single point]
50 | CCCCNC(=O)CSc1nnc(-c2ccc(S(=O)(=O)N3CCCC3)cc2)n1C | inactive
51 | COc1ccc(C2=NS(=O)(=O)N(C)C(C(=O)NCc3cccs3)=C2)cc1OC | inconclusive: 20 µM [inhibitor, single point]
52 | CC(OC(=O)c1cccc(-n2cnnn2)c1)C(=O)Nc1ccc(F)cc1 (configuration not stated) | inconclusive: 3.55 µM [inhibitor, single point]
53 | CCOc1ccc2nc(NC(=O)CSc3nc4c(c(=O)n(C)c(=O)n4C)n3CC)sc2c1 | active: 3.98 µM
54 | CCCn1nc(C(=O)NCC2COc3ccccc3O2)c2ccccc2c1=O (configuration not stated) | inconclusive: 12.6 µM [inhibitor, partial curve]
55 | O=C(OCc1cc(Cl)cc2c1OCOC2)c1cccnc1Cl | inconclusive: 7.08 µM [inhibitor, partial curve]
56 | COc1ccc(C2CC(c3ccccc3)=NN2C(=O)COC(=O)c2cccc(S(=O)(=O)N3CCOCC3)c2)cc1 (configuration not stated) | inconclusive: 5.62 µM [inhibitor, partial curve]
57 | CC(C)CNC(=O)Nc1ccc(F)c(Cl)c1 | inactive
58 | CN(c1ccc(OCC(=O)Nc2nc3ccccc3s2)cc1)S(=O)(=O)c1ccccc1 | inconclusive: 2 µM [inhibitor, full curve, poor fit]
59 | COc1ccc(/C=N/NC(=O)c2cc(C)on2)c2ccccc12 | inconclusive: 35.5 µM [inhibitor, partial curve, poor fit]
60 | Cc1cc(-n2c(C)cc(C(=O)CCl)c2C)no1 | inconclusive: 22.4 µM [inhibitor, single point]
61 | CCC(=NCCCN(CC)CC)c1c(O)n(C2CCCCC2)c(=O)[nH]c1=O | inactive
62 | Cc1ccc(NC(=S)N2CCc3[nH]c4ccccc4c3C2)cc1 | inconclusive: 15.8 µM [inhibitor, single point]
63 | CCCNc1cc(C)oc(=O)c1C(=O)CCC | inconclusive: 5.01 µM [inhibitor, full curve]
64 | CN1CCN(C(=S)c2ccc(OCC(=O)Nc3cccc(C(F)(F)F)c3)cc2)CC1 | inconclusive: 20 µM [inhibitor, partial curve]
65 | COc1ccc2[nH]c3c(c2c1)CCN1C(=O)N([C@@H](C)C(=O)NCc2ccc(F)cc2)C(=O)[C@]31C | inconclusive: 2.24 µM [inhibitor, partial curve, poor fit]
66 | O=C(Nc1ccc2c(c1)N(S(=O)(=O)c1cccs1)CCC2)c1c(F)cccc1F | inconclusive: 8.91 µM [inhibitor, partial curve]
67 | COc1ccc(S(=O)(=O)Nc2ccc(-n3cnnn3)cc2)cc1Br | inconclusive: 31.6 µM [inhibitor, single point]
